Experimental data: a collection of fitness landscapes (doi:10.1016/j.celrep.2020.107928)
The full ranking holds about 81,000 sequences; the median of “one-hybrid fitness for binding parS DNA” is about -0.17, and the highest 2% start at about 0.51. Some of the results follow.

B1: Caulobacter ParB omega fusion; a variant is named by its letters at X, in order, B8GW30 (parent)
chain: MESVVVGEPGMSEGRRGLGRGLSALLGEVDAAPAQAPGEQLGGSREAPIEILQRNPDQPRRTFREEDLEDLSNSIREKGVLQPILVRPSPDTAGEYQIVAGERAWRAAQRAGLKTVPIMVRELDDLAVLEIGIIENVQRADLNVLEEALSYKVLMEKFERTQENIAQTIGKSXSHVANXMRLLXLPDEVQSYLVSGELTAXHARAIAAAADPVALAKQIIEGGLSVRETEALARKAPNLSAGKSKGGRPPRVKDTDTQALESDLSSVLGLDVSIDHRGSTGTLTITYATLEQLDDLCNRLTRGI

Variants of: B1
Experiment: one-hybrid fitness for binding parS DNA (scaled: cognate 1, non-cognate 0); higher = stronger binding
Conditions: with parS DNA site
Procedure, shortened: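 Bacterial one-hybrid selection in E. coli USO rpoZ- hisB- pyrF- with a HIS3 reporter carrying the site 19 bp from the promoter, screening Caulobacter ParB libraries with four specificity codons randomised (NNS). Cells grew 48 hours at 37°C on M9-minus-histidine plus 0.1 mM IPTG and 5 mM 3-AT. Plasmids before and after selection were Illumina-sequenced, three replicate libraries pooled, and variants under 10 reads dropped. Fitness is the log change in variant-to-wild-type read ratio, rescaled to cognate 1, non-cognate 0.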

Variant	one-hybrid fitness for binding parS DNA
QQMT	≤ 0.2
ASDF	≤ 0.2
QMIF	≤ 0.2
GQGI	≤ 0.2
RSVS	0.946
NASF	≤ 0.2
LRTI	≤ 0.2
ECLR	≤ 0.2
IPMV	≤ 0.2
DKEG	≤ 0.2
ALKA	≤ 0.2
AQIG	≤ 0.2
MMKS	≤ 0.2
KRYV	≤ 0.2
YIVC	≤ 0.2
FGSR	≤ 0.2
VEPI	≤ 0.2
PGHC	≤ 0.2
TLYS	≤ 0.2
HCWL	≤ 0.2
MGTR	≤ 0.2
RLPR	≤ 0.2
KPSS	≤ 0.2
LDTS	≤ 0.2

Variant	one-hybrid fitness for binding parS DNA
GWRG	≤ 0.2
KRAD	≤ 0.2
KAAC	≤ 0.2
VRLV	≤ 0.2
EQKG	≤ 0.2
RRFI	≤ 0.2
TSID	≤ 0.2
SSRI	≤ 0.2
SRYL	≤ 0.2
RRKG	0.708
QMTL	≤ 0.2
AFNP	≤ 0.2
QKPG	≤ 0.2
TRPG	≤ 0.2
GHSE	≤ 0.2
NTMT	≤ 0.2
EQES	≤ 0.2
LLSD	≤ 0.2
QVRN	≤ 0.2
TTRG	≤ 0.2
TTRQ	≤ 0.2
RFWM	≤ 0.2
GGNL	≤ 0.2
WQPT	≤ 0.2

Variant	one-hybrid fitness for binding parS DNA
WHPF	≤ 0.2
CMKR	≤ 0.2
ENAM	≤ 0.2
QRVV	≤ 0.2
RTWN	0.461
THDK	≤ 0.2
LNWW	≤ 0.2
HQLR	≤ 0.2
MWFS	≤ 0.2
YCKV	≤ 0.2
AQVS	≤ 0.2
CLYV	≤ 0.2
QCAI	≤ 0.2
EKAM	≤ 0.2
KPTF	≤ 0.2
RHLI	≤ 0.2
SLIS	≤ 0.2
LKGT	≤ 0.2
ILKG	≤ 0.2
RSEK	≤ 0.2
DYKA	≤ 0.2
RAYS	1.03
LTGA	≤ 0.2
CQFT	≤ 0.2

Variant	one-hybrid fitness for binding parS DNA
KFLW	≤ 0.2
RGPF	≤ 0.2
PSGY	≤ 0.2
MPIP	≤ 0.2
LLSS	≤ 0.2
HEIG	≤ 0.2
GYKA	≤ 0.2
RQAY	0.444
HKRG	≤ 0.2
YNDS	≤ 0.2
MVYR	≤ 0.2
PNIV	≤ 0.2
PPAA	≤ 0.2
SDKT	≤ 0.2
GAWC	≤ 0.2
GTTH	≤ 0.2
CGVM	≤ 0.2
SQYE	≤ 0.2
KSRW	≤ 0.2
HHAC	≤ 0.2
ARCG	≤ 0.2
AQLG	≤ 0.2
HFRR	≤ 0.2
YSPK	≤ 0.2

Variant	one-hybrid fitness for binding parS DNA
KRNL	≤ 0.2
RRRY	0.812
WDGA	≤ 0.2
PYNC	≤ 0.2
KETG	≤ 0.2
YYYT	≤ 0.2
IRGM	≤ 0.2
NPLN	≤ 0.2
QKGS	≤ 0.2
DAHT	≤ 0.2
LLPE	≤ 0.2
RWDP	≤ 0.2
QVAG	≤ 0.2
KVPG	≤ 0.2
CTKM	≤ 0.2
WCES	≤ 0.2
NSQW	≤ 0.2
TCDL	≤ 0.2
GITA	≤ 0.2
SLYV	≤ 0.2
DPSF	≤ 0.2
THRY	≤ 0.2
DPYC	≤ 0.2
TEDF	≤ 0.2

Variant	one-hybrid fitness for binding parS DNA
LKRY	≤ 0.2
ARQK	≤ 0.2
CPDH	≤ 0.2
VILL	≤ 0.2
QRRG	≤ 0.2
PRFF	≤ 0.2
NTIG	≤ 0.2
RTPC	0.625
WKRF	≤ 0.2
RCSI	≤ 0.2
VNDG	≤ 0.2
RVWK	≤ 0.2
EMRI	≤ 0.2
QIPP	≤ 0.2
NDMA	≤ 0.2
VFDR	≤ 0.2
NCNI	≤ 0.2
LTPC	≤ 0.2
SSCT	≤ 0.2
GTST	≤ 0.2
QYGW	≤ 0.2
AAMP	≤ 0.2
GWNV	≤ 0.2
GIQG	≤ 0.2

Variant	one-hybrid fitness for binding parS DNA
KTVC	≤ 0.2
EEGG	≤ 0.2
CDLE	≤ 0.2
RLHA	0.592
PCHR	≤ 0.2
TRKI	≤ 0.2
TEPM	≤ 0.2
IVKT	≤ 0.2
MSMV	≤ 0.2
QMTW	≤ 0.2
DKRS	≤ 0.2
LMGY	≤ 0.2
RFVV	≤ 0.2
DTMR	≤ 0.2
SCMF	≤ 0.2
CIPS	≤ 0.2
QAQH	≤ 0.2
DTTK	≤ 0.2
VAYL	≤ 0.2
KGFW	≤ 0.2
PHIT	≤ 0.2
AKKW	≤ 0.2
CMIR	≤ 0.2
KSNW	≤ 0.2

Variant	one-hybrid fitness for binding parS DNA
YYWF	≤ 0.2
DAWY	≤ 0.2
QHTI	≤ 0.2
CLCW	≤ 0.2
GHRY	≤ 0.2
RYYR	≤ 0.2
TAVL	≤ 0.2
RVKK	≤ 0.2
VRVS	≤ 0.2
HLYT	≤ 0.2
VRNT	≤ 0.2
MASD	≤ 0.2
NYCV	≤ 0.2
SPLG	≤ 0.2
CEKV	≤ 0.2
HTYD	≤ 0.2
VYSL	≤ 0.2
DSIE	≤ 0.2
VNPM	≤ 0.2
DWFR	≤ 0.2
CTKA	≤ 0.2
VGFF	≤ 0.2
SEKT	≤ 0.2
VHKY	≤ 0.2

Variant	one-hybrid fitness for binding parS DNA
CSSD	≤ 0.2
VRNA	≤ 0.2
ATHF	≤ 0.2
LRGY	≤ 0.2
TNLI	≤ 0.2
PTQC	≤ 0.2
YVHC	≤ 0.2
MADN	≤ 0.2
LPES	≤ 0.2
YTLF	≤ 0.2
TLMW	≤ 0.2
QFCY	≤ 0.2
AATK	≤ 0.2
CWAL	≤ 0.2
SGLW	≤ 0.2
IGSA	≤ 0.2
TRQH	≤ 0.2
LSFE	≤ 0.2
ETQC	≤ 0.2
KPSV	≤ 0.2
SRDY	≤ 0.2
YVWS	≤ 0.2
YAHY	≤ 0.2
PKHV	≤ 0.2

Variant	one-hybrid fitness for binding parS DNA
TRVN	≤ 0.2
GDGS	≤ 0.2
DTNC	≤ 0.2
QCCM	≤ 0.2
QMHA	≤ 0.2
WIPG	≤ 0.2
TDHT	≤ 0.2
CPMN	≤ 0.2
YINH	≤ 0.2
RIAY	0.484
CRHL	≤ 0.2
HFVL	≤ 0.2
YLWS	≤ 0.2
RGGN	≤ 0.2
QCVA	≤ 0.2
PKYC	≤ 0.2
KATC	≤ 0.2
AEKN	≤ 0.2
HINQ	≤ 0.2
EMGT	≤ 0.2
QTPP	≤ 0.2
GFCR	≤ 0.2
RECT	≤ 0.2
QLLR	≤ 0.2

Variant	one-hybrid fitness for binding parS DNA
VRVH	≤ 0.2
YGIS	≤ 0.2
DVAE	≤ 0.2
ATMV	≤ 0.2
RHKD	≤ 0.2
EQPV	≤ 0.2
KKNC	≤ 0.2
RNRG	0.94
QCFS	≤ 0.2
IVES	≤ 0.2
MNLN	≤ 0.2
VNCV	≤ 0.2
GYWS	≤ 0.2
RFQP	≤ 0.2
PHTT	≤ 0.2
QYVR	≤ 0.2
WTTV	≤ 0.2
RGLH	≤ 0.2
SGYI	≤ 0.2
VENT	≤ 0.2
CGQS	≤ 0.2
AFNV	≤ 0.2
SVVS	≤ 0.2
LITV	≤ 0.2

Variant	one-hybrid fitness for binding parS DNA
SSYC	≤ 0.2
NIKR	≤ 0.2
AEDG	≤ 0.2
QMPP	≤ 0.2
YKYL	≤ 0.2
LFDR	≤ 0.2
LGGF	≤ 0.2
WSNE	≤ 0.2
WMLT	≤ 0.2
CAVR	≤ 0.2
PPMI	≤ 0.2
SINY	≤ 0.2
YHQS	≤ 0.2
HNHT	≤ 0.2
IRNQ	≤ 0.2
QCSV	≤ 0.2
QVSK	≤ 0.2
QRTF	≤ 0.2
YYNN	≤ 0.2
PQQY	≤ 0.2
ILVG	≤ 0.2
QVVT	≤ 0.2
EVCS	≤ 0.2
TLPY	≤ 0.2

Variant	one-hybrid fitness for binding parS DNA
HYKK	≤ 0.2
DIII	≤ 0.2
WIFS	≤ 0.2
PPFL	≤ 0.2
SIMP	≤ 0.2
QWPR	≤ 0.2
QETG	≤ 0.2
RLDP	≤ 0.2
QKSE	≤ 0.2
YTNG	≤ 0.2
SCKE	≤ 0.2
SNRT	≤ 0.2
MPQI	≤ 0.2
SCNS	≤ 0.2
QTLM	≤ 0.2
THYT	≤ 0.2
KLPA	≤ 0.2
CWKT	≤ 0.2
